This note sets out measurements from ChEMBL document CHEMBL4346670, “Discovery of Novel Janus Kinase (JAK) and Histone Deacetylase (HDAC) Dual Inhibitors for the Treatment of Hematological Malignancies” (J Med Chem, 2019).

For series [1], the target named is Homeodomain-interacting protein kinase 2 (Homo sapiens) (UniProt Q9H2X6). In words: Inhibition of recombinant human HIPK2 at 200 nM using Ulight-CFFKNIVTPRTPPPSQGK-amide as substrate measured after 30 mins by LANCE method relative to control. In outline: (§1)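 Part of an 85-kinase selectivity panel run by a contract lab, with the test compound at 20 nM and at 200 nM. Each human recombinant kinase's phosphorylation of its peptide substrate was measured following the JAK assay method. Activity is given as percent inhibition.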

The target in series [2] is Serine/threonine-protein kinase 4 (Homo sapiens) (UniProt Q13043). In words: Inhibition of recombinant human MST1 at 20 nM using Ulight-FLGFTYVAP as substrate measured after 60 mins by LANCE method relative to control. In outline:
as §1

The target of series [3] is Tyrosine-protein kinase TXK (Homo sapiens) (UniProt P42681). Kind of series: Inhibition of recombinant human TXK at 20 nM using Ulight-Poly GAT[EAY(1:1:1)] as substrate measured after 30 mins by LANCE method relative to control. (In general: TR-FRET usually uses a lanthanide donor and a delayed reading to cut background.)
The test system of series [4] is HEL. In words: Induction of apoptosis in HEL cells assessed as late apoptotic cells at 0.5 uM after 24 hrs by Annexin-V/propidium iodide staining-based flow cytometric analysis (reference value: 0.023%). The series is classed as functional, Homo sapiens. (In flow cytometry, cells or beads pass a laser one at a time.)
Series [5] concerns the target Fibroblast growth factor receptor 3 (Homo sapiens) (UniProt P22607). In words: Inhibition of recombinant human FGFR3 at 200 nM using Ulight-CAGAGAIETDKEYYTVKD as substrate measured after 90 mins by LANCE method relative to control. In short, it runs like this: (§2)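 Single-concentration screen within an 85-kinase panel run by a contract lab, with each compound tested at 20 nM and 200 nM. Human recombinant enzymes were used. Activity was quantified as phosphorylation of a peptide substrate read by LANCE time-resolved detection, and inhibition was expressed relative to control, using the same format as the JAK assay.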

For series [6], the system named is K562. Kind of series: Induction of apoptosis in human K562 cells assessed as viable cells at 0.5 uM after 24 hrs by Annexin-V/propidium iodide staining-based flow cytometric analysis (reference value: 85.7%). The series is classed as functional. The following applies: K562, 24 h, read-out: Activity.
A short description of series [7]: Half life in CD1(ICR) mouse at 1 mg/kg, iv by LC-MS/MS analysis. The series is classed as ADME, organism-based. The following applies: in vivo. In outline:
(§3)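 Male ICR (CD-1) mice dosed IP or IV, vehicle 10% DMSO, 40% PEG400, 50% water. Blood taken from the jugular vein at set time points and held on ice. Plasma separated by centrifugation, stored at -80 °C, and analysed by LC-MS/MS.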

Series [8] addresses Focal adhesion kinase 1 (Homo sapiens) (UniProt Q05397). In words: Inhibition of recombinant human FAK1 at 20 nM using Ulight-TK peptide as substrate measured after 60 mins by LANCE method relative to control. In short, it runs like this: as §2
Series [9] deals with Serine/threonine-protein kinase Nek2 (Homo sapiens) (UniProt P51955). In words: Inhibition of recombinant human NEK2 at 200 nM using Ulight-FLGFTYVAP as substrate measured after 60 mins by LANCE method relative to control. In short, it runs like this: as §1
Series [10] addresses ALK tyrosine kinase receptor (Homo sapiens) (UniProt Q9UM73). In words: Inhibition of recombinant human ALK at 200 nM using Ulight-CKKSRGDYMTMQIG as substrate measured after 60 mins by LANCE assay relative to control. In short, it runs like this: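 Human recombinant kinases tested at 20 nM and 200 nM compound in an outsourced panel of 85 kinases. Activity measured as phosphorylation of a ULight-labelled substrate by LANCE detection, expressed as inhibition relative to control.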
Sequence of UniProt Q9UM73 (Q9UM73 whole entry, looked up): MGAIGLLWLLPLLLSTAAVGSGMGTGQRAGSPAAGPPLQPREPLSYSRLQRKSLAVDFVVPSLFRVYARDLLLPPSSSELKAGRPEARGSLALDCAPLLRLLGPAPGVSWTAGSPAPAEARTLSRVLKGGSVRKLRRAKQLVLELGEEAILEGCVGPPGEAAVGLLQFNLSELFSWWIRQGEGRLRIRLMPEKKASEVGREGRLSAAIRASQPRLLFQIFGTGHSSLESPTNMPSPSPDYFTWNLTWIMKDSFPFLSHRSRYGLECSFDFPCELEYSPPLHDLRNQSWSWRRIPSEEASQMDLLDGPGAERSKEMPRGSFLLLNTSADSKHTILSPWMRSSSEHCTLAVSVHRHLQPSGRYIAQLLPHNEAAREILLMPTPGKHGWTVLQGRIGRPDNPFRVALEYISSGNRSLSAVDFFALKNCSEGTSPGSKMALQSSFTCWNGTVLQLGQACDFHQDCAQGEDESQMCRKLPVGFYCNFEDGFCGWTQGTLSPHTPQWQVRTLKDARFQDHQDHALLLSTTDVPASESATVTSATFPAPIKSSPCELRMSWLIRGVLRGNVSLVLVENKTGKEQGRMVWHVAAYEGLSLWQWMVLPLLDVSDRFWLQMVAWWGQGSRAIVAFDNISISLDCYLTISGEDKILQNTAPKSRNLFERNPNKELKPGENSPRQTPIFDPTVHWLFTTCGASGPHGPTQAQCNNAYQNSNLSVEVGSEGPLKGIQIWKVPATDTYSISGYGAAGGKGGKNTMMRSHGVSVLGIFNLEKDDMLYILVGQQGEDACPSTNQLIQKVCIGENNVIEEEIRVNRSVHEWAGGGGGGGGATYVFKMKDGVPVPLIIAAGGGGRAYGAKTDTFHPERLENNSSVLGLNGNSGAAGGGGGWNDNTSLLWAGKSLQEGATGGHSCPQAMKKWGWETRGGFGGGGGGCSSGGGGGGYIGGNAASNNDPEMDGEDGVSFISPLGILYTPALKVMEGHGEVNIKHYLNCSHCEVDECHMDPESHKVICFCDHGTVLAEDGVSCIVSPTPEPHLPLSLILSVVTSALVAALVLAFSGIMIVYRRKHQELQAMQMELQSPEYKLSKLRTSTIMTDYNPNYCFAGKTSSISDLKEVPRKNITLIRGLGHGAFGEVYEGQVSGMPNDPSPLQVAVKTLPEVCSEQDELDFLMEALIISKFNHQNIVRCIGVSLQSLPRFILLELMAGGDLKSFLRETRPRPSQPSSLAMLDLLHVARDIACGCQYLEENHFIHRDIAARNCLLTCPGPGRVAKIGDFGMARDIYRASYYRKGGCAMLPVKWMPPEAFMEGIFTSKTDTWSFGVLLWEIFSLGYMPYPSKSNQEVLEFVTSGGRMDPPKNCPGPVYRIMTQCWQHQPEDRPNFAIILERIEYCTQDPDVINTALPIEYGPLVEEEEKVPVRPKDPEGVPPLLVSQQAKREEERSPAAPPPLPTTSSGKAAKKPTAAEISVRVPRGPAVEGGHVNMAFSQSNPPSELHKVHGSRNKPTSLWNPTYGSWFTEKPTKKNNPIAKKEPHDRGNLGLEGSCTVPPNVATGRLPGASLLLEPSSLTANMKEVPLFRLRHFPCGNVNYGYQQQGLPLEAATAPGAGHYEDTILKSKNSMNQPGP

Series [11] concerns the target Protein-tyrosine kinase 2-beta (Homo sapiens) (UniProt Q14289). In words: Inhibition of recombinant human PYK2 at 200 nM using Ulight-TK peptide as substrate measured after 15 mins by LANCE method relative to control.
Series [12] deals with Serine/threonine-protein kinase Chk1 (Homo sapiens) (UniProt O14757). Kind of series: Inhibition of recombinant human CHK1 at 20 nM using CREBtide as substrate measured after 30 mins by LANCE assay relative to control. In short, it runs like this: as §2
For series [13], the target named is Serine/threonine-protein kinase Sgk1 (Homo sapiens) (UniProt O00141). In words: Inhibition of recombinant human SGK1 at 200 nM using Ulight-RRRSLLE as substrate measured after 30 mins by LANCE method relative to control.
Sequence of UniProt O00141 (O00141 whole entry): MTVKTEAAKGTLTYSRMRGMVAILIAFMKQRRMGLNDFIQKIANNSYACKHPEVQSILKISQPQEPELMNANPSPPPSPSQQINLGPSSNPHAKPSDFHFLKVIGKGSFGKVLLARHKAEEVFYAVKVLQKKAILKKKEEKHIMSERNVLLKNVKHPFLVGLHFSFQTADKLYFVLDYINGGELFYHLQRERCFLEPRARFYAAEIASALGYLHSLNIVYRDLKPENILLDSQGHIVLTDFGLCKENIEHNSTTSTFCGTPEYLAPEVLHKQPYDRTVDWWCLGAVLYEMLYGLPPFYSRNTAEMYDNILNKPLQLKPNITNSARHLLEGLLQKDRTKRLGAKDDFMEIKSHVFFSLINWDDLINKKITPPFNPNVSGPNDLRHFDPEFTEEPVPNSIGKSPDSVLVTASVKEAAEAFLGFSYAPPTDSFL
The target of series [14] is Cyclin-dependent kinase 6 (Homo sapiens) (UniProt Q00534). Kind of series: Inhibition of recombinant human CDK6 at 200 nM using Ulight-CFFKNIVTPRTPPPSQGK-amide as substrate measured after 60 mins by LANCE assay relative to control. In outline:
as §2

For series [15], the target named is Vascular endothelial growth factor receptor 3 (Homo sapiens) (UniProt P35916). In words: Inhibition of recombinant human FLT4 at 200 nM using Ulight-CAGAGAIETDKEYYTVKD as substrate measured after 90 mins by LANCE method relative to control. In outline:
as §2

Series [16] deals with Serine/threonine-protein kinase B-raf (Homo sapiens) (UniProt P15056). In words: Inhibition of recombinant human BRAF at 20 nM using inactive MEK as substrate measured after 30 mins by LANCE method relative to control.
Series [17] concerns the target Serine/threonine-protein kinase ULK1 (Homo sapiens) (UniProt O75385). In words: Inhibition of recombinant human ULK1 at 20 nM using Ulight-FLGFTYVAP as substrate measured after 60 mins by LANCE method relative to control.
Series [18] deals with Non-receptor tyrosine-protein kinase TYK2 (Homo sapiens, UniProt P29597). In words: Inhibition of recombinant human TYK2 at 20 nM using Ulight-CAGAGAIETDKEYYTVKD as substrate measured after 60 mins by LANCE method relative to control.
Series [19] deals with Mitogen-activated protein kinase kinase kinase 9 (Homo sapiens) (UniProt P80192). Kind of series: Inhibition of recombinant human MLK1 at 20 nM using Ulight-FLGFTYVAP as substrate measured after 60 mins by LANCE method relative to control. In short, it runs like this: as §1
For series [20], the target named is Mitogen-activated protein kinase 3 (Homo sapiens) (UniProt P27361). Kind of series: Inhibition of recombinant human ERK1 at 20 nM using Ulight-CFFKNIVTPRTPPPSQGK-amide as substrate measured after 30 mins by LANCE method relative to control. In short, it runs like this:
as §2

The target in series [21] is Serine/threonine-protein kinase pim-2 (Homo sapiens) (UniProt Q9P1W9). Kind of series: Inhibition of recombinant human PIM2 at 200 nM using CREBtide as substrate measured after 60 mins by LANCE method relative to control.
The target of series [22] is Proto-oncogene tyrosine-protein kinase Src (Homo sapiens) (UniProt P12931). In words: Inhibition of recombinant human SRC at 20 nM using Ulight-Poly GAT[EAY(1:1:1)] as substrate measured after 10 mins by LANCE method relative to control.
Sequence of UniProt P12931 (P12931 whole entry, looked up): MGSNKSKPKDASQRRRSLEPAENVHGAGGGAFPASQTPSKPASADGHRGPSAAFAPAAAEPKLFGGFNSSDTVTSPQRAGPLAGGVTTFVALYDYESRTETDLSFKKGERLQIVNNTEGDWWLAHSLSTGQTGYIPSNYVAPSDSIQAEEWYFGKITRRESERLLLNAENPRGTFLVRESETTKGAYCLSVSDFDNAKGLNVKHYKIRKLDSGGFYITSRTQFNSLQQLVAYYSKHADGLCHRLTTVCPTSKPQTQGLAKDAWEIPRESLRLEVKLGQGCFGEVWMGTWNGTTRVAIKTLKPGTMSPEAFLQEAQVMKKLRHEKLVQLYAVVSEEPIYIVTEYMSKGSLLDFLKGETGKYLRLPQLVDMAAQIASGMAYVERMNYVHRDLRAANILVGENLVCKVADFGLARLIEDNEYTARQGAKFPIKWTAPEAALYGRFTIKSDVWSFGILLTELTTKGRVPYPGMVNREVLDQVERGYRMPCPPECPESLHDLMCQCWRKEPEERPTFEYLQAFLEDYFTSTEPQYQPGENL
The target of series [23] is Tyrosine-protein kinase Fyn (Homo sapiens) (UniProt P06241). Kind of series: Inhibition of recombinant human FYN at 200 nM using biotinyl-beta amyloid-beta amyloid-beta AYQAEENTYDEYEN as substrate after 60 mins by HTRF method relative to control.
Series [24] can be described thus: AUC (0 to t) in CD1(ICR) mouse at 1 mg/kg, iv by LC-MS/MS analysis. The note with it: in vivo. The class given is ADME, organism-based. In outline: as §3

Sequence of UniProt Q13043 (Q13043 whole entry): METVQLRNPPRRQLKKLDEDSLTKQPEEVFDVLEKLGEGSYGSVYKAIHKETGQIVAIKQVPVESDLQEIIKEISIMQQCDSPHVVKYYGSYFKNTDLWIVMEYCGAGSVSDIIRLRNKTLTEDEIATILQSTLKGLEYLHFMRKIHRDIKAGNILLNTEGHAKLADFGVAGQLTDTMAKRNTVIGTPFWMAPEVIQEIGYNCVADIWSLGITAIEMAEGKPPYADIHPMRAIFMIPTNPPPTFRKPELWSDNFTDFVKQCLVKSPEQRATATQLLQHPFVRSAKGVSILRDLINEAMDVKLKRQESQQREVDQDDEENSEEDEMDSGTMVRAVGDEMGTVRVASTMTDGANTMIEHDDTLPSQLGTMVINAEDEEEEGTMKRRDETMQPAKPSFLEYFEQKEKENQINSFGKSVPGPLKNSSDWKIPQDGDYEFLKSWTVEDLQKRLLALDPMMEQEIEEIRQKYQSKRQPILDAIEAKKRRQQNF
Sequence of UniProt P27361 (P27361 whole entry): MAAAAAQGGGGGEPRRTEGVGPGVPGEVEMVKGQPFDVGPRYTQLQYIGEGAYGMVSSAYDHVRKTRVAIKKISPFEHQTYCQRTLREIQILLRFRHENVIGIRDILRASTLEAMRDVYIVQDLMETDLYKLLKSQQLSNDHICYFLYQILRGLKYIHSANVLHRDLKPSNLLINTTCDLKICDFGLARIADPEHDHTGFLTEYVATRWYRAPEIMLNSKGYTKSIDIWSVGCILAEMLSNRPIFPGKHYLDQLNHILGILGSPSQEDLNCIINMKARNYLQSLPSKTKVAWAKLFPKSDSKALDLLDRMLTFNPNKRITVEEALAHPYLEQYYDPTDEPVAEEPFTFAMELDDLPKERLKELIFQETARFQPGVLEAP
Sequence of UniProt P35916 (P35916 whole entry): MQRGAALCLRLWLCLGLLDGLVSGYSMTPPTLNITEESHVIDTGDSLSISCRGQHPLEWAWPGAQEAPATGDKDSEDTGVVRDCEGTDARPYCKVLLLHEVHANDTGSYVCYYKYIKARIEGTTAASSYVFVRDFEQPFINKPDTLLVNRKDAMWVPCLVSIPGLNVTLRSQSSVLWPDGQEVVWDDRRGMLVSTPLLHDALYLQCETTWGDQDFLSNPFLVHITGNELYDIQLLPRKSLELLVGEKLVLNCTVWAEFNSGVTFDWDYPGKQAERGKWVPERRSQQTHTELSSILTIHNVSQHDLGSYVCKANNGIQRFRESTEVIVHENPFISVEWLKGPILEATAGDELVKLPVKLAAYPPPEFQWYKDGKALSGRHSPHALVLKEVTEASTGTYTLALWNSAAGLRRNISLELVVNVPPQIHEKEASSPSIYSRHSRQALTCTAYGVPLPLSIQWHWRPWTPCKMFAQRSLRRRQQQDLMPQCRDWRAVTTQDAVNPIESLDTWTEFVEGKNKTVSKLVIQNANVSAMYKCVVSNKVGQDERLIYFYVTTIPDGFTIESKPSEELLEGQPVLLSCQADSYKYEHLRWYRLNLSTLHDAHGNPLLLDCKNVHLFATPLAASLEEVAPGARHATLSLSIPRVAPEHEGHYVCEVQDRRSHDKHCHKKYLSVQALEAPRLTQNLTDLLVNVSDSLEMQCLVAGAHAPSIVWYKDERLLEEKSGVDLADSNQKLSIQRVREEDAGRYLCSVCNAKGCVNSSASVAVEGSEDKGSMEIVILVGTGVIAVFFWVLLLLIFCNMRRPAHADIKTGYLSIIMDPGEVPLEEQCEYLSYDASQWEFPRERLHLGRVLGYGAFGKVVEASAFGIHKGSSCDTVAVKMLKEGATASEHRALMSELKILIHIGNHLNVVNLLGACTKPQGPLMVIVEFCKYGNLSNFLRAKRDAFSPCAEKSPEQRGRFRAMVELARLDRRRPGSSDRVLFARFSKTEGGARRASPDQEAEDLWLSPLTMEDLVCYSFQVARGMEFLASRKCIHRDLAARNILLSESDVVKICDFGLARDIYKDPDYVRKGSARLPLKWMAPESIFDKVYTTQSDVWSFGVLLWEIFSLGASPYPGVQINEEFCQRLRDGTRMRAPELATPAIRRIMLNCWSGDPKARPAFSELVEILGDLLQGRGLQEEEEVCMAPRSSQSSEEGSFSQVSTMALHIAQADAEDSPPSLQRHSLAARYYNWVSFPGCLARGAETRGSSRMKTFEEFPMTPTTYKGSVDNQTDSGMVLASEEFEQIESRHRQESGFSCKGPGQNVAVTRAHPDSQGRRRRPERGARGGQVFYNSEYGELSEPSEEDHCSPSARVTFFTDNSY

Usually inhibition stands for the relative decrease from the control value, in per cent. For orientation: half-life means the time in which the quantity being followed falls by half. Lower therefore signals fast loss. In general, AUC(0-t) refers to exposure summed from dosing to a finite time, without extrapolation to infinity. In the case of `O=C(CCCCCn1cc(Nc2ncc(Cl)c(Nc3ccc(Cl)cc3)n2)cn1)NO`, the inhibition in [1] is 48%; in series [2], -4%; in series [3], 6%; in series [5] it was 65%; in series [8], 7%; in series [9], 15%. Also, the inhibition in series [10] was 35%; in [11], 26%; in series [12], 12%; in series [13], 0%; in [14], 34%; in [15] it was 85%. In addition, the inhibition in series [16] was 3%; in series [17], 3%; in [18], 4%; in [19] it was 30%; in series [20], -10%; in [21], 1%. Also, the inhibition in [22] amounted to 15%; in [23] it was 42%. The Activity in [4] is 67.9%. The viability at 0.5 µM in series [6] came out at 28.2%. This compound also gave a half-life in series [7] of 19.2 min. Besides, the AUC(0-t) in series [24] came out at 28.4 ng·h/mL.
